# This is one part of the list.
# B1: CVN-E41G (protein)
# chain: MHHHHHHENLYFQSGNFSQACYNSAIQGSVLTSTCIRTNGGYNTSSIDLNSVIANVDGSLKWQGSNFIETCRNTQLAGSSELAAECKTRAQQFVSTKINLDDHIAAIDGTLKYE
# What was measured:
# Test in all cases: glycan array binding signal (z-score within array); higher = stronger binding
# Conditions in all cases: glycan notation: IUPAC condensed, linker removed; mutation: E41A
# Gal(a1-3)Gal(b1-4)GlcNAc = target: Gal(a1-3)Gal(b1-4)GlcNAc
# Outline: (§1)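 Negative Z-scores can be read as non-binding. The Z-score is calculated within each array and then averaged across arrays of one protein sequence at different concentrations or buffers and across linkers. Arrays, 3228 in all, were curated from the Consortium for Functional Glycomics database and kept only where the protein sequence was available.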
# [1] = target: Gal(a1-3)Gal(b1-4)GlcNAc(b1-2)Man
# Outline: as §1
# [2] = target: Gal(a1-3)Gal(b1-4)GlcNAc(b1-2)Man(a1-3)[Gal(a1-3)Gal(b1-4)GlcNAc(b1-2)Man(a1-6)]Man(b1-4)GlcNAc(b1-4)GlcNAc
# Outline: as §1
# [3] = target: Gal(a1-3)Gal(b1-4)GlcNAc(b1-3)GalNAc
# Outline: as §1
# [4] = target: Gal(a1-3)Gal(b1-4)GlcNAc(b1-6)GalNAc
# Outline: as §1
# [5] = target: Gal(a1-3)Gal(b1-4)[Fuc(a1-3)]GlcNAc
# Outline: as §1
# [6] = target: Gal(a1-3)Gal(b1-4)[Fuc(a1-3)]GlcNAc(b1-2)Man(a1-3)[Gal(a1-3)Gal(b1-4)[Fuc(a1-3)]GlcNAc(b1-2)Man(a1-6)]Man(b1-4)GlcNAc(b1-4)GlcNAc
# Outline: as §1
# Gal(a1-3)GalNAc = target: Gal(a1-3)GalNAc
# Outline: as §1
# [7] = target: Gal(a1-3)[Gal(a1-4)]Gal(b1-4)GlcNAc
# Outline: as §1
# [8] = target: Gal(a1-4)Gal(b1-3)GlcNAc(b1-2)Man(a1-3)[Gal(a1-4)Gal(b1-3)GlcNAc(b1-2)Man(a1-6)]Man(b1-4)GlcNAc(b1-4)GlcNAc
# Outline: as §1
# Gal(a1-4)Gal(b1-4)Glc = target: Gal(a1-4)Gal(b1-4)Glc
# Outline: as §1
# Gal(a1-4)Gal(b1-4)GlcNAc = target: Gal(a1-4)Gal(b1-4)GlcNAc
# Outline: as §1
# [9] = target: Gal(a1-4)Gal(b1-4)GlcNAc(b1-2)Man(a1-3)[Gal(a1-4)Gal(b1-4)GlcNAc(b1-2)Man(a1-6)]Man(b1-4)GlcNAc(b1-4)GlcNAc
# Outline: as §1
# [10] = target: Gal(a1-4)Gal(b1-4)GlcNAc(b1-3)Gal(b1-4)Glc
# Outline: as §1
# Gal(a1-4)GlcNAc = target: Gal(a1-4)GlcNAc
# Outline: as §1
# Gal(a1-6)Glc = target: Gal(a1-6)Glc
# Outline: as §1
# Gal(b1-2)Gal = target: Gal(b1-2)Gal
# Outline: as §1
# Gal(b1-3)Gal = target: Gal(b1-3)Gal
# Outline: as §1
# Gal(b1-3)Gal(b1-4)GlcNAc = target: Gal(b1-3)Gal(b1-4)GlcNAc
# Outline: as §1
# Gal(b1-3)GalNAc = target: Gal(b1-3)GalNAc
# Outline: as §1
# [11] = target: Gal(b1-3)GalNAc(a1-3)[Fuc(a1-2)]Gal(b1-4)Glc
# Outline: as §1
# [12] = target: Gal(b1-3)GalNAc(a1-3)[Fuc(a1-2)]Gal(b1-4)GlcNAc
# Outline: as §1
# Gal(b1-3)GalNAc(b1-3)Gal = target: Gal(b1-3)GalNAc(b1-3)Gal
# Outline: as §1
# [13] = target: Gal(b1-3)GalNAc(b1-3)Gal(a1-4)Gal(b1-4)Glc
# Outline: as §1
# [14] = target: Gal(b1-3)GalNAc(b1-4)Gal(b1-4)Glc
# Outline: as §1
# [15] = target: Gal(b1-3)GalNAc(b1-4)[Neu5Ac(a2-3)]Gal(b1-4)Glc
# Outline: as §1
# Gal(b1-3)GlcNAc = target: Gal(b1-3)GlcNAc
# Outline: as §1
# [16] = target: Gal(b1-3)GlcNAc(a1-3)Gal(b1-4)GlcNAc
# Outline: as §1
# [17] = target: Gal(b1-3)GlcNAc(a1-6)Gal(b1-4)GlcNAc
# Outline: as §1
# Gal(b1-3)GlcNAc(b1-2)Man = target: Gal(b1-3)GlcNAc(b1-2)Man
# Outline: as §1
# [18] = target: Gal(b1-3)GlcNAc(b1-2)Man(a1-3)[Gal(b1-3)GlcNAc(b1-2)Man(a1-6)]Man(b1-4)GlcNAc(b1-4)GlcNAc
# Outline: as §1
# [19] = target: Gal(b1-3)GlcNAc(b1-2)Man(a1-3)[Gal(b1-3)GlcNAc(b1-2)Man(a1-6)]Man(b1-4)GlcNAc(b1-4)[Fuc(a1-6)]GlcNAc
# Outline: as §1
# [20] = target: Gal(b1-3)GlcNAc(b1-2)Man(a1-3)[GlcNAc(b1-4)][Gal(b1-3)GlcNAc(b1-2)Man(a1-6)]Man(b1-4)GlcNAc(b1-4)GlcNAc
# Outline: as §1
# [21] = target: Gal(b1-3)GlcNAc(b1-2)[Gal(b1-3)GlcNAc(b1-6)]Man(a1-6)[Gal(b1-3)GlcNAc(b1-2)Man(a1-3)]Man(b1-4)GlcNAc(b1-4)GlcNAc
# Outline: as §1
# [22] = target: Gal(b1-3)GlcNAc(b1-3)Gal(b1-3)GlcNAc
# Outline: as §1
# [23] = target: Gal(b1-3)GlcNAc(b1-3)Gal(b1-4)Glc
# Outline: as §1
# [24] = target: Gal(b1-3)GlcNAc(b1-3)Gal(b1-4)GlcNAc
# Outline: as §1
# [25] = target: Gal(b1-3)GlcNAc(b1-3)Gal(b1-4)GlcNAc(b1-2)Man(a1-3)[Gal(b1-3)GlcNAc(b1-3)Gal(b1-4)GlcNAc(b1-2)Man(a1-6)]Man(b1-4)GlcNAc(b1-4)GlcNAc
# Outline: as §1
# [26] = target: Gal(b1-3)GlcNAc(b1-3)Gal(b1-4)GlcNAc(b1-2)[Gal(b1-3)GlcNAc(b1-3)Gal(b1-4)GlcNAc(b1-6)]Man(a1-6)[Gal(b1-3)GlcNAc(b1-3)Gal(b1-4)GlcNAc(b1-2)Man(a1-3)]Man(b1-4)GlcNAc(b1-4)[Fuc(a1-6)]GlcNAc
# Outline: as §1
# [27] = target: Gal(b1-3)GlcNAc(b1-3)Gal(b1-4)GlcNAc(b1-3)Gal(b1-4)GlcNAc(b1-2)[Gal(b1-3)GlcNAc(b1-3)Gal(b1-4)GlcNAc(b1-3)Gal(b1-4)GlcNAc(b1-6)]Man(a1-6)[Gal(b1-3)GlcNAc(b1-3)Gal(b1-4)GlcNAc(b1-3)Gal(b1-4)GlcNAc(b1-2)Man(a1-3)]Man(b1-4)GlcNAc(b1-4)[Fuc(a1-6)]GlcNAc
# Outline: as §1
# [28] = target: Gal(b1-3)GlcNAc(b1-3)Gal(b1-4)GlcNAc(b1-6)[Gal(b1-3)GlcNAc(b1-3)]Gal(b1-4)Glc
# Outline: as §1
# [29] = target: Gal(b1-3)GlcNAc(b1-3)Gal(b1-4)[Fuc(a1-3)]GlcNAc
# Outline: as §1
# [30] = target: Gal(b1-3)GlcNAc(b1-3)Gal(b1-4)[Fuc(a1-3)]GlcNAc(b1-6)[Gal(b1-3)GlcNAc(b1-3)]Gal(b1-4)Glc
# Outline: as §1
# [31] = target: Gal(b1-3)GlcNAc(b1-3)GalNAc
# Outline: as §1
# [32] = target: Gal(b1-3)GlcNAc(b1-6)Gal(b1-4)GlcNAc
# Outline: as §1
binder,measurement,setting,value
B1,glycan array binding signal (z-score),Gal(a1-3)Gal(b1-4)GlcNAc,-0.208
same,glycan array binding signal (z-score),[1],-0.123
same,glycan array binding signal (z-score),[2],-0.229
same,glycan array binding signal (z-score),[3],-0.225
same,glycan array binding signal (z-score),[4],-0.191
same,glycan array binding signal (z-score),[5],-0.243
same,glycan array binding signal (z-score),[6],-0.085
same,glycan array binding signal (z-score),Gal(a1-3)GalNAc,-0.209
same,glycan array binding signal (z-score),[7],-0.221
same,glycan array binding signal (z-score),[8],0.159
same,glycan array binding signal (z-score),Gal(a1-4)Gal(b1-4)Glc,-0.176
same,glycan array binding signal (z-score),Gal(a1-4)Gal(b1-4)GlcNAc,-0.135
same,glycan array binding signal (z-score),[9],0.1
same,glycan array binding signal (z-score),[10],-0.177
same,glycan array binding signal (z-score),Gal(a1-4)GlcNAc,-0.225
same,glycan array binding signal (z-score),Gal(a1-6)Glc,-0.197
same,glycan array binding signal (z-score),Gal(b1-2)Gal,-0.195
same,glycan array binding signal (z-score),Gal(b1-3)Gal,-0.214
same,glycan array binding signal (z-score),Gal(b1-3)Gal(b1-4)GlcNAc,-0.227
same,glycan array binding signal (z-score),Gal(b1-3)GalNAc,-0.031
same,glycan array binding signal (z-score),[11],-0.002
same,glycan array binding signal (z-score),[12],-0.148
same,glycan array binding signal (z-score),Gal(b1-3)GalNAc(b1-3)Gal,-0.08
same,glycan array binding signal (z-score),[13],-0.198
same,glycan array binding signal (z-score),[14],-0.211
same,glycan array binding signal (z-score),[15],-0.196
same,glycan array binding signal (z-score),Gal(b1-3)GlcNAc,-0.214
same,glycan array binding signal (z-score),[16],-0.24
same,glycan array binding signal (z-score),[17],-0.194
same,glycan array binding signal (z-score),Gal(b1-3)GlcNAc(b1-2)Man,-0.089
same,glycan array binding signal (z-score),[18],0.128
same,glycan array binding signal (z-score),[19],-0.149
same,glycan array binding signal (z-score),[20],0.791
same,glycan array binding signal (z-score),[21],0.54
same,glycan array binding signal (z-score),[22],-0.207
same,glycan array binding signal (z-score),[23],-0.163
same,glycan array binding signal (z-score),[24],-0.216
same,glycan array binding signal (z-score),[25],0.194
same,glycan array binding signal (z-score),[26],0.977
same,glycan array binding signal (z-score),[27],0.792
same,glycan array binding signal (z-score),[28],1.14
same,glycan array binding signal (z-score),[29],-0.234
same,glycan array binding signal (z-score),[30],-0.208
same,glycan array binding signal (z-score),[31],-0.171
same,glycan array binding signal (z-score),[32],-0.121

# Source: the supplement of paper PMC8728848
